This assay has as its system Plasmodium falciparum. The assay is described as follows: Primary screen in NF54 nanoGlo assay, in single point, at 2uM, 72h; a lower Z score goes with more inhibition. To be noted: timepoint 72 hour. Type of assay: functional, Erythrocyte.

“And” between values parts separate entries of the source, which are not always exact repeats. Identical values can stand only once. In all, about 150,000 compounds went through this assay and about 540 (0.36%) showed an effect of 50% or more. Some of the results follow.

This note sets out measurements from ChEMBL document CHEMBL4888484, “Replenishing the malaria drug discovery pipeline: Screening and hit evaluation of the MMV Hit Generation Library 1 (HGL1) against asexual blood stage Plasmodium falciparum ,using a nano luciferase reporter read-out” (2022).

A word on the % Inhibition: it is the change of the read-out against control, counted positive when it falls.

With `O=C(Cc1ccc(N(Cc2cccc(F)c2)C(=O)C2CCCC2)cc1)NCCN1CCCC1`, the “% Inhibition” value was 25% and the Z score is listed as -2.85.
For `CCn1ccnc1CNc1cccc2c1OCCO2`, in that order: -23% and 1.95.
Take `CC(=O)N[C@@H](Cc1c[nH]c2ccccc12)C(=O)Nc1ccc(C)c(C)c1`: the “% Inhibition” value was -1% and the Z score was found to be 0.3.
`Cc1ccc(-n2c(=O)c3sccc3n(CC(=O)Nc3nc4ccccc4s3)c2=O)cc1C`: the “% Inhibition” value came to 2% and the Z score is -0.22.
Take `O=S(=O)(NCCn1cc(-c2ccoc2)cn1)N1CCOCC1`: the “% Inhibition” value is recorded as -4% and the Z score came to 0.68.
For `CCOC(=O)c1sc2nc(-c3ccc(C)c(C)c3)c(NCc3ccc(C)cc3)n2c1C`, in that order: 5% and -0.6.
With `Cc1cc(S(=O)(=O)O)c(N)cc1C(C)C`, for the setting “2 µM”, the “% Inhibition” value is -11% and -3%; the Z score is 1.24 and 0.45.
For `COc1ncc(NC(=O)C2CCCC2)cn1`, the “% Inhibition” value is listed as -7% and the Z score came to 1.31.
For `O=C(Nc1ccc(/C=C\c2ccccc2)cc1)c1cccc(C(=O)Nc2ccc(/C=C\c3ccccc3)cc2)c1`, in that order: -3% and 0.49.
For `CCCNC(=O)OC[C@H]1CCCCN1Cc1cn(C(C)C)nc1C`, in that order: -4% and 0.65.
Consider `CCOc1ccc(CC(=O)N2Cc3cncnc3C2)cc1`, for which the “% Inhibition” value is listed as -9% and the Z score came out at 1.48.
As to `CC(C)c1ccc([C@H](C(=O)Nc2ccc(N(C)C)cc2)N(Cc2ccc(F)cc2)C(=O)CN2C(=O)C(=O)c3ccccc32)cc1`, the “% Inhibition” value is listed as 32% and the Z score is given as -3.6.
For `Cc1cc(C)c(S(=O)(=O)Nc2ccc(C)cc2-c2nc3ccccc3[nH]c2=O)c(C)c1`, in that order: -2% and 0.29.
The like results for `Cc1noc(C)c1CC(=O)NC1CCOCC1` were, in that order, 4% and -0.62.
As to `Fc1ccccc1Oc1nc(N2CCOCC2)nc2c1CN(Cc1ccc(C(F)(F)F)cc1)CC2`, the “% Inhibition” value amounted to 2% and the Z score is listed as -0.23.
Turning to `COc1cc(F)cc(CNC(=O)NCc2csc(N(C)C)n2)c1`, the “% Inhibition” value stood at 13% and the Z score is recorded as -1.55.
With `CN(C(=O)CCCOc1cccnc1)c1cc(F)ccc1F`, the “% Inhibition” value is on record as -13% and the Z score is recorded as 1.11.
As for `Cc1nc(-c2cccc(F)c2)nc(N2CCN(C(=O)Nc3ccc(C(F)(F)F)cc3)CC2)c1Cc1ccccc1`, the “% Inhibition” value is -6% and the Z score turned out to be 0.97.
Regarding `CC[C@]1(CO)CCCN(c2ccc(Cn3nc(C)cc3C)cn2)C1`, the “% Inhibition” value was -19% and the Z score is given as 3.39.
For `O=C(C(c1ccccc1)c1ccccc1)N1Cc2cnc(N3CCOCC3)nc2C1`, in that order: -5% and 1.02.
With `COc1ccc(Oc2c(CN(C[C@H]3CCCO3)C(=O)c3ccc(Cl)cc3)c(-c3ccccc3)nn2C)cc1`, the “% Inhibition” value is given as -12% and the Z score came out at 1.17.
For `CCn1nccc1-c1ccc(C(=O)C2CCC2)cc1`, in that order: -7% and 0.76.
In the case of `N#Cc1cccc(S(=O)(=O)Nc2cccc3c2CCNC3)c1`, the “% Inhibition” value is given as 3% and the Z score is -0.61.
As to `CN(Cc1ccoc1)C(=O)[C@@H]1CCC(=O)NC(=O)N1`, the “% Inhibition” value turned out to be 11% and the Z score is listed as -1.38.
As for `O=C(c1ccccc1-c1ccccc1)N1C[C@H]2C[C@H](O)[C@@H](O)C[C@H]2C1`, the “% Inhibition” value turned out to be 2% and the Z score was -0.52.
The like results for `O=C(c1ccc2[nH]nnc2c1)N1CCn2nc([C@@H](O)C3CC3)cc2C1` were, in that order, -10% and 0.97.
For `O=C(C1CC=CCC1)N1CCC2CCCCC21` (centres undefined), in that order: -8% and 1.07.
The like results for `c1ccc2c(c1)CCN(c1nnc(C3CC3)n1C[C@H]1CCOC1)C2` were, in that order, -14% and 2.08.
Regarding `C#CCCC1(CCC(=O)N2CCN(C3CCC3)CC2)N=N1`, the “% Inhibition” value is reported as -14% and the Z score stood at 1.73.
The like results for `CCN1CCN(C(=O)NCc2cc(-c3ccccn3)no2)CC1=O` were, in that order, -10% and 1.82.
For `Fc1ccc(-c2cnc3n2C[C@H](CNCc2ccccn2)OC3)cc1`, in that order: 11% and -1.22.
Regarding `Cc1cc(-c2c(-c3ccccc3)ncn2CCN2CCCOC2=O)[nH]n1`, the “% Inhibition” value is given as -10% and the Z score came out at 0.95.
As for `CN(C)c1ccc(-c2ccc(C(=O)NCCN3CCCC3=O)cc2)nn1`, the “% Inhibition” value is given as -19% and the Z score stood at 3.54.
Regarding `O=C(CCN1C(=O)CCC1=O)Nc1nc(C(F)(F)F)cs1`, the “% Inhibition” value is on record as -11% and the Z score was 1.83.
For `Cc1cc(N2CCN(C(=O)Nc3ccc4ccccc4c3)CC2)nc(N2CCOCC2)n1`, the “% Inhibition” value is recorded as -8% and the Z score was found to be 1.16.
For the compound `Cc1n[nH]c(-c2ccc(S(=O)(=O)N3CCN(C)CC3)s2)c1C`, the “% Inhibition” value is recorded as -9% and the Z score is reported as 1.42.
The like results for `Cc1cc2c(cc1S(=O)(=O)NCc1ccncc1)NC(=O)CO2` were, in that order, -6% and 0.69.
`Cn1cc(C(=O)Nc2cccc(OCC(F)F)n2)ccc1=O`: the “% Inhibition” value is on record as -11% and the Z score turned out to be 1.77.
`CCN(CC)C(=O)c1ccc(S(N)(=O)=O)cn1`: the “% Inhibition” value is on record as -9% and the Z score was determined as 1.47.
In the case of `CC1(C)[C@@H](NS(=O)(=O)Cc2ccon2)[C@@H]1c1ccccc1`, the “% Inhibition” value is -15% and the Z score was found to be 1.93.
In the case of `COc1ccccc1N1CC(=O)N=C1Nc1nc(C)cc(C)n1`, the “% Inhibition” value was -1% and the Z score came out at 0.16.
For `O=S(=O)(NCc1ccccc1)c1ccc(-c2cc(C(F)(F)F)on2)o1`, in that order: -6% and 0.99.
The like results for `COC1CCCCCC1NC(=O)NC(C)CC(O)c1ccco1` (centres undefined) were, in that order, 0% and 0.03.
On to `Cc1cnc([C@H](C)N2CCC(S(=O)(=O)N3CCCC3)CC2)o1`, for which the “% Inhibition” value is -14% and the Z score is given as 2.67.
As for `C#CCNC(=O)CNC(=O)c1ccc(F)c(Br)c1`, the “% Inhibition” value is on record as -4% and the Z score was found to be 0.54.
The like results for `NC(=O)CN1CCCN(C(=O)Nc2nc(C3CC3)cs2)CC1` were, in that order, -7% and 0.62.
The like results for `O=C(Nc1nc2c(s1)CN(Cc1ccccc1)CC2)c1cccs1` were, in that order, -1% and 0.15.
The like results for `CC(C)S(=O)(=O)N(C)C(=O)c1cccc(COc2ccccc2C#N)c1` were, in that order, -3% and 0.43.
For `CCN(C[C@H]1CCCCO1)S(=O)(=O)c1ccc(-c2ccn[nH]2)o1`, the “% Inhibition” value worked out at 1% and the Z score is recorded as -0.2.
The like results for `C[C@]1(CNC(=O)C2CC=CC2)CCCO1` were, in that order, -7% and 1.38.
In the case of `CCN(CC(=O)NC(=O)NC)C1CN(C(=O)OC(C)(C)C)C1`, the “% Inhibition” value is -12% and the Z score is 1.2.
The like results for `CC12C=CC(C3C(=O)N(c4ccccc4F)C(=O)[C@H]31)C21CC1` (some centres undefined) were, in that order, -10% and 0.9.
For `COCCN1C[C@]2(CCCN(C(=O)Cc3cccc(O)c3)C2)CCC1=O`, in that order: -10% and 1.11.
For `CCC(=O)NCc1nc2c(n1CC)CN(S(=O)(=O)c1ccc(F)c(Cl)c1)CC2`, in that order: -6% and 0.82.
Take `Cc1cc(N)nc(Nc2ccc(Nc3ccccc3)cc2)n1`: the “% Inhibition” value worked out at 29% and the Z score is reported as -8.92.
Turning to `COc1ccccc1CNC(=O)c1ccc(S(=O)(=O)N2CCCCCC2)s1`, the “% Inhibition” value is reported as -9% and the Z score is given as 1.18.
On to `COc1ccc(Oc2nc(N3CCCC3)c(Cl)c3c2N(C2CCCCC2)CCS3(=O)=O)cc1`, for which the “% Inhibition” value stood at 3% and the Z score was -0.55.
Regarding `CCCCCC(=O)N1CCN(c2cc(Oc3ccc(F)c(F)c3)ncn2)C[C@@H]1C`, the “% Inhibition” value is given as 0% and the Z score is on record as -0.02.
For `COc1ccc(CN2CCC(N3CC(O)=C(c4nc(-c5ccccc5)cs4)C3=N)CC2)cc1`, the “% Inhibition” value is reported as -4% and the Z score is on record as 0.57.
As for `CC(=O)N(CCC(=O)N1CCOC[C@@H]1C)Cc1ccccc1`, the “% Inhibition” value was -14% and the Z score is 1.79.
The like results for `CCC(CC)NC(=O)[C@H]1CCC[C@H]1NC(=O)c1ccc(OC)cc1` were, in that order, -8% and 1.04.
For the compound `O=C(CCOc1cccc(F)c1)N1CCC(C(=O)N2CCCC2)CC1`, the “% Inhibition” value was -6% and the Z score came to 0.87.
Take `CN1CCC(N(C)[C@H]2CC(=O)N(c3ccc(Br)cc3)C2=O)CC1`: the “% Inhibition” value was -10% and the Z score came to 1.05.
Consider `C=CCn1nc(C(=O)O)c2c1CC[C@H](N(C)Cc1ccncc1C)C2`, for which the “% Inhibition” value is listed as -15% and the Z score was 1.51.
For `CC[C@@]1(C(=O)NCCN2CCOCC2)CCCCC(=O)N1`, in that order: 5% and -0.52.
For the compound `COC(=O)c1ncn2c1CO[C@H](c1ccc(OC)cc1)C2`, the “% Inhibition” value is -5% and the Z score was determined as 0.53.
For `CC(C)c1ccc(C(=O)N2CC[C@H](N3CCN(C)CC3)[C@H](CCC(=O)O)C2)cc1`, in that order: -1% and 0.17.
The like results for `COc1cc2c(cc1OC)CN(C(=O)c1ccc(N(C)C)nc1)CC2` were, in that order, 9% and -1.33.
On to `COc1cc2c(cc1OC)CN(S(=O)(=O)c1ccc3c(c1)CCCC3)CC2`, for which the “% Inhibition” value was 6% and the Z score is reported as -0.76.
As for `COC(=O)C1CCCCCCC1NC(=O)Nc1cccc(F)c1` (centres undefined), the “% Inhibition” value is reported as 2% and the Z score was -0.46.
The like results for `CCn1c(=O)c(N2CCC[C@H](C(=O)NCCc3c[nH]c4ccccc34)C2)nc2ccccc21` were, in that order, 35% and -0.82.
With `C[C@@H](Cn1ncc2ccccc21)C(=O)Nc1n[nH]c2cc(F)ccc12`, the “% Inhibition” value is -6% and the Z score stood at 1.12.
In the case of `COCCn1nc(C)c(Br)c1C`, the “% Inhibition” value is listed as -1% and the Z score came out at 0.09.
With `CN1CCN(Cc2cc(CN3CCCCC3)cs2)C[C@H]1c1ccccc1`, the “% Inhibition” value is listed as 1% and the Z score is -0.11.
Turning to `O=C(CN1C(=O)c2ccccc2C1=O)OCC(=O)N1CCCCC1`, the “% Inhibition” value turned out to be 16% and the Z score is listed as -1.83.
As for `CC(NC(=O)c1ccc2c(c1)OCO2)C1CC2CCC1C2` (centres undefined), the “% Inhibition” value was -13% and the Z score is listed as 1.66.
For `CC(C)c1nnnn1[C@H]1CO[C@H]2[C@@H]1OC[C@H]2O`, in that order: 2% and -0.27.
The like results for `c1ccc2sc([C@H]3CCN(C4CCC4)C3)nc2c1` were, in that order, -14% and 2.12.
Regarding `O=C(NCCN1Cc2cc(Cl)ccc2OCC1=O)c1ccc(=O)[nH]c1`, the “% Inhibition” value is -17% and the Z score amounted to 2.96.
On to `CC[C@@H](C(=O)N1CCN(c2nc(CN3CCN(Cc4ccccc4)CC3)cc(=O)[nH]2)CC1)c1ccccc1`, for which the “% Inhibition” value was -12% and the Z score is listed as 2.12.
For `COC(=O)C[C@H](c1c(Cc2cc(F)c(F)cc2F)[nH][nH]c1=O)c1ccnn1C`, in that order: -4% and 0.56.
For `Cc1cnn(C)c1S(=O)(=O)NC1(Cc2ccccc2)CC1`, in that order: -8% and 1.19.
